# Results from PubChem BioAssay (NCATS).
# Where “and” joins values, the source holds several entries; their conditions need not be identical. Equal entries are not always repeated. The shares of active, inactive and inconclusive entries below differ from those in the screen. For part of these data: Potencies of inconclusive entries are doubtful fits and often do not repeat. Calls of active or inactive are those of the source. Unless noted, the call rests on the fitted dose curve; in most records, active means well fitted curve in the direction sought with a large enough effect; inconclusive means small, poorly fitted or top-dose-only effect, or another doubt; inactive means no such curve, though single readings can be large; an effect the other way counts as inactive or inconclusive.
# Legend:
# [1] = Viability qHTS for spleen associated tyrosine kinase inhibitor (SYKi) naive MV4-11 cells (AID 1963823); further: nearly all actives have a fitted effect of over 40% in size
# Method in brief: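 Luminescence from CellTiter-Glo, developed 10 min at room temperature, gave viability of MV4-11 cells never exposed to SYK inhibitor. Cells (500/well) had been incubated with compounds for 72 hr under standard culture conditions.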
# [2] = Viability qHTS for spleen associated tyrosine kinase inhibitor (SYKi) drug resistant MV4-11 cells (AID 1963824); further: nearly all actives have a fitted effect of over 35% in size
# Method in brief: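 CellTiter-Glo luminescence, read 10 min after reagent addition, reports viability after a 72 hr compound exposure. Cells are an MV4-11 line made resistant to SYK inhibition, seeded at 500 per well onto compound-containing plates.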
# [3] = Cellular viability qHTS for adrenocortical cancer (ACC) cell line NCI-H295R (AID 1963990); details: CellTiter-Glo ATP luminescence, 48 h; activity change, negative = viability loss: at 46.1 µM (top of the series); further: nearly all actives have a fitted effect of over 60% in size;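 on activity change, negative = viability loss: 0% = DMSO only wells and -100% = full killing with cytotoxic reference compound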
# Method in brief: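 Readout: CellTiter-Glo luminescence, 20 min RT. Exposure: 48 h, 37C/5% CO2. Cells: NCI-H295R, ITS-DMEM serum-free. Range: up to 46 uM. Analysis: 4PL fit, IC50 plus efficacy.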
# [4] = target: Polyprotein P1234 (Chikungunya virus (strain S27-African prototype)) (UniProt Q8JUX6); assay: Secondary cell base assay for inhibitors of NSP2Pro Chikungunya virus (CHIKV) (AID 1964100; calls by dose curve; further: nearly all actives have a fitted effect of over 70% in size; on activity change, negative = inhibition: on the % scale 0 is the no-effect control and ±100 the full control effect)
# Chain of UniProt Q8JUX6 (Q8JUX6 whole entry, looked up): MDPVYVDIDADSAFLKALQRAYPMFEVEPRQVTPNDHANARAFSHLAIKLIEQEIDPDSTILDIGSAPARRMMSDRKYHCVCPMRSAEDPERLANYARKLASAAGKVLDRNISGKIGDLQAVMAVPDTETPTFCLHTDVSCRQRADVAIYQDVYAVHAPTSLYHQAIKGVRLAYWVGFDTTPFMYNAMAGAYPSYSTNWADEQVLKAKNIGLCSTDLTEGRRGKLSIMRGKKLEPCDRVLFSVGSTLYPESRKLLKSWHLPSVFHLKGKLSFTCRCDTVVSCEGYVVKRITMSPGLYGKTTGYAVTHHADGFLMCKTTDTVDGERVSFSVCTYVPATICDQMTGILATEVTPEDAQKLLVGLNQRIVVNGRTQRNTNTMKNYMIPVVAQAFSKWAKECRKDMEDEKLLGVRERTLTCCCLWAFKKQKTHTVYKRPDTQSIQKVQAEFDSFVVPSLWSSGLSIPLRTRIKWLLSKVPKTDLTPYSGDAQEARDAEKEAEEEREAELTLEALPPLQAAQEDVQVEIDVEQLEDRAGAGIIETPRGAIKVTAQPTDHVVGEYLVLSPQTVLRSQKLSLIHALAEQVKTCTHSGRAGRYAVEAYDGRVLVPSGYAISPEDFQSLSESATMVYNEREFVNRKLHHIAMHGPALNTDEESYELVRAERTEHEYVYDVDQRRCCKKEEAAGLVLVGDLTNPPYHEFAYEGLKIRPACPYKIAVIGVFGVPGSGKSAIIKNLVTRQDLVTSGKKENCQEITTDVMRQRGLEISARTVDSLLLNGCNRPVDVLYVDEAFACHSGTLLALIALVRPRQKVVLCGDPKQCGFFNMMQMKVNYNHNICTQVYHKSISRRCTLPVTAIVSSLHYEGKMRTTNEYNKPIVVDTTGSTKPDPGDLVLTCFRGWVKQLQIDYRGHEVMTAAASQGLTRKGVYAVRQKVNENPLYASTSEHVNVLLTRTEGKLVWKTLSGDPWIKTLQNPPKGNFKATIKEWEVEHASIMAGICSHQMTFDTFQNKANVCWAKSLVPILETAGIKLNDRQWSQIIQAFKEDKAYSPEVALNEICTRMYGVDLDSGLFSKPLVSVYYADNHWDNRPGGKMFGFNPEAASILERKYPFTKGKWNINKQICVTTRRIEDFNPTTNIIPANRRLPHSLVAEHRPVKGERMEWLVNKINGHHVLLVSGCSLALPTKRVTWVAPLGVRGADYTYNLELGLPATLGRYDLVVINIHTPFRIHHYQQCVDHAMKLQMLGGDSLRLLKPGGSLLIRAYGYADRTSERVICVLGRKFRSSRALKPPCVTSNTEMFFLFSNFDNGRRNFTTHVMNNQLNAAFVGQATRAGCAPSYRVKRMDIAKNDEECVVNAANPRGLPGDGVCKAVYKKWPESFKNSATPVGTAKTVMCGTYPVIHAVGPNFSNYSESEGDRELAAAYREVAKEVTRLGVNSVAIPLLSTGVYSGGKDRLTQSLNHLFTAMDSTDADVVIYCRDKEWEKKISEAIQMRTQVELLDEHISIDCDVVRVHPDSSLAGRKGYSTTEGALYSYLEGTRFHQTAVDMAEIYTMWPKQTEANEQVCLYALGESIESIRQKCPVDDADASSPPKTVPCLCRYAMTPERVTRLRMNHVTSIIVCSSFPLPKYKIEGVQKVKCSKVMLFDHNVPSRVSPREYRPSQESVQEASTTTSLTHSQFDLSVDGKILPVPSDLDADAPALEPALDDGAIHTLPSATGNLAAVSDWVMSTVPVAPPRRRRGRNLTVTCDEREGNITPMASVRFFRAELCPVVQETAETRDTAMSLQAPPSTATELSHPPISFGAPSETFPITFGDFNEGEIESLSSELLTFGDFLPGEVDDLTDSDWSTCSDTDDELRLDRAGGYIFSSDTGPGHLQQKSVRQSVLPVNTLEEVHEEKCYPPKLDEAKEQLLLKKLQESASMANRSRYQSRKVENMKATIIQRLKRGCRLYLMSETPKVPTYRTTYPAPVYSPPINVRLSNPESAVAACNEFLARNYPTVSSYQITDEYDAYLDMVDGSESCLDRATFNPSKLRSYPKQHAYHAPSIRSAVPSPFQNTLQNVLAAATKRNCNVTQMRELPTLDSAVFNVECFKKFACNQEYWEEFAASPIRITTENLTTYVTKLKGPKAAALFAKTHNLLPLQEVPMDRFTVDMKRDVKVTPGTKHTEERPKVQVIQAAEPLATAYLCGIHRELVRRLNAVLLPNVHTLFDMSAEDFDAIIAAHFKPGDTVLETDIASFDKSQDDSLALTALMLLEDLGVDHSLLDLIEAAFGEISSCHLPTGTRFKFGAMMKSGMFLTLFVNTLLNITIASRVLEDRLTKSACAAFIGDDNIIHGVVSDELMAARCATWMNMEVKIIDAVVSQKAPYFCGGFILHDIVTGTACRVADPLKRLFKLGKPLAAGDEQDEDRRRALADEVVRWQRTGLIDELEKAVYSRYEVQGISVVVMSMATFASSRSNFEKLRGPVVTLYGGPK
# [5] = target: Polyprotein P1234 (Chikungunya virus (strain S27-African prototype)) (UniProt Q8JUX6); assay: Selectivity profile for inhibitors of NSP2Pro chikungunya virus (CHIKV): Full length NSP2 enzyme counterscreen (CHIKV-NSP2) (AID 1964101; calls by dose curve; further: nearly all actives have a fitted effect of over 65% in size); details: Full-length CHIKV NSP2 protease enzymatic counterscreen; activity change, negative = inhibition: at 50.7 µM (top of the series)
# [6] = tested on: Hepatitis C virus NS3/4A protease; assay: Selectivity profile for inhibitors of NSP2Pro chikungunya virus (CHIKV): NS34A-HCV Counterscreen (AID 1964106; calls by dose curve; further: nearly all actives have a fitted effect of over 55% in size; on activity change, negative = inhibition: on the % scale 0 is the no-effect control and ±100 the full control effect); details: activity change, negative = inhibition: at 50.9 µM (top of the series) unless noted
# [7] = Quantitative highthroughput screen to assess conditional lethalithy of NOMO1 cells grown in RPMI1640 with dialyzed fetal bovine serum (RPMI+ds) (AID 1963877); further: nearly all actives have a fitted effect of over 30% in size;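 on Viability: 100% = DMSO control wells and 0% = empty wells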
# Method in brief: (§1)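 Each medium arm—HPLM with 10% dialyzed FBS, or RPMI1640 with 5 mM glucose and 10% untreated or dialyzed FBS—was screened against an 11-point, 3-fold compound titration for 48 h at 37 °C, with CellTiter-Glo luminescence as endpoint.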
# [8] = Quantitative highthroughput screen to assess conditional lethalithy of P12 Ichikawa cells grown in RPMI1640 with untreated serum (RPMI+s) (AID 1963881); details: Potency: viability; further: nearly all actives have a fitted effect of over 35% in size;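 on Viability: 100% = DMSO wells and 0% = empty wells without cells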
# Method in brief: as §1
# [9] = Quantitative highthroughput screen to assess conditional lethalithy of SEM cells grown in RPMI1640 with dialyzed fetal bovine serum (RPMI+ds) (AID 1963884); further: nearly all actives have a fitted effect of over 35% in size;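 on Viability: 100% = DMSO control wells and 0% = empty wells without cells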
# Method in brief: as §1
# [10] = Cellular viability qHTS for adrenocortical cancer (ACC) cell line SW-13 (AID 1963989); details: SW-13 ACC cells viability, CellTiter-Glo, 48 h; activity (max response): active compounds read low; further: nearly all actives have a fitted effect of over 65% in size;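 on activity (max response): cells grown in serum-free medium with ITS supplement; on the % scale 0 is the no-effect control and ±100 the full control effect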
# Method in brief: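 Compound titrations (up to 46 uM final, in DMSO) were applied to SW-13 cells for 48 h at 37C/5% CO2. Reading used CellTiter-Glo after 20 min at room temperature; fitted curves yielded IC50 and efficacy.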
# [11] = Quantitative highthroughput screen to assess conditional lethalithy of NOMO1 cells grown in Human Plasma-Like Medium with dialyzed fetal bovine serum (HPLM+ds) (AID 1963878); further: nearly all actives have a fitted effect of over 35% in size;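 on Viability: 100% = DMSO wells and 0% = empty wells on each plate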
# Method in brief: as §1
# [12] = Quantitative highthroughput screen to assess conditional lethalithy of SEM cells grown in Human Plasma-Like Medium with dialyzed fetal bovine serum (HPLM+ds) (AID 1963882); further: nearly all actives have a fitted effect of over 35% in size
# Method in brief: as §1
# [13] = Quantitative highthroughput screen to assess conditional lethalithy of SEM cells grown in RPMI1640 with unreated serum (RPMI+s) (AID 1963883); further: nearly all actives have a fitted effect of over 35% in size;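 on Viability: 100% = DMSO wells and 0% = empty wells without cells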
# Method in brief: as §1
# [14] = Quantitative highthroughput screen to assess conditional lethalithy of P12 Ichikawa cells grown in RPMI1640 with dialyzed fetal bovine serum (RPMI+ds) (AID 1963880); details: Potency: P12-Ichikawa viability; further: nearly all actives have a fitted effect of over 35% in size
# Method in brief: as §1
# [15] = tested on: Chikungunya virus nsP2 protease; assay: Confirmatory qHTS for inhibitors of NSP2Pro chikungunya virus (CHIKV) (AID 1964105; calls by dose curve; further: nearly all actives have a fitted effect of over 75% in size)
# [16] = Quantitative highthroughput screen to assess conditional lethalithy of NOMO1 cells grown in RPMI1640 with untreated serum (RPMI+s) (AID 1963876); further: nearly all actives have a fitted effect of over 35% in size;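 on Viability: 100% = DMSO wells and 0% = empty wells without cells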
# Method in brief: as §1
# Potency means the concentration at half of the fitted maximal effect; tags describe the fitted curve by direction and shape.
structure (smiles),measurement,setting,value
S=C(SSC(=S)N1CCCCC1)N1CCCCC1,Potency,[1],"inconclusive: 2.11 µM [cytotoxic, full curve, poor fit]"
same,Potency,[2],"inconclusive: 0.668 µM [cytotoxic, full curve, poor fit]"
same,Potency,[3],"inconclusive: 3.66 µM [cytotoxic, partial curve]"
same,Potency,[4],active: 12.6 µM
same,Potency,[5],active: 14.6 µM
same,Potency,[6],inactive
C[C@]12CC[C@@H]3c4ccc(OC(=O)N(CCCl)CCCl)cc4CC[C@H]3[C@@H]1CC[C@@H]2OP(=O)(O)O,Potency,[1],inactive
same,Potency,[7],"inconclusive: 26.4 µM [cytotoxic, single point]"
same,Potency,[8],inactive
same,Potency,[9],"inconclusive: 8.33 µM [cytotoxic, partial curve]"
same,activity (max response),[10],inactive: -13.4%
N[C@@H](Cc1ccc(N(CCCl)CCCl)cc1)C(=O)O,Potency,[1],active: 10.6 µM and active: 833 nM
same,Potency,[11],active: 7.43 µM
same,Potency,[8],active: 4.69 µM
same,Potency,[12],active: 4.18 µM
same,Potency,[9],active: 2.96 µM
same,Potency,[10],"inconclusive: 22.4 µM [cytotoxic, single point]"
same,Potency,[3],"inconclusive: 29.1 µM [cytotoxic, single point]"
CCc1c(C(=O)C(N)=O)c2c(OCC(=O)O)cccc2n1Cc1ccccc1,Potency,[1],inactive
same,Potency,[8],inactive
same,Potency,[13],inactive
Oc1ccc(Cl)cc1,Potency,[1],inactive
same,activity (max response),[10],inactive: 10.2%
O=c1cccc2n1CC1CNC[C@H]2C1,Potency,[1],inactive
same,Potency,[11],"inconclusive: 20.9 µM [cytotoxic, partial curve]"
same,Potency,[8],"inconclusive: 20.9 µM [cytotoxic, partial curve]"
same,activity (max response),[10],inactive: -2.44%
COc1ccc(C(=O)c2c(C)n(CCN3CCOCC3)c3cc(I)ccc23)cc1,Potency,[1],active: 13.2 µM
same,Potency,[7],"inconclusive: 1.32 µM [cytotoxic, full curve]"
same,Potency,[11],"inconclusive: 0.935 µM [cytotoxic, full curve]"
same,Potency,[14],active: 8.33 µM
same,Potency,[8],active: 4.18 µM
same,Potency,[3],active: 20 µM
C[C@]12CC[C@H]3[C@@H](CCC4=CC(=O)CC[C@@]43C)[C@H]1CC[C@H]2OC(=O)CCC1CCCC1,Potency,[1],"inconclusive: 23.5 µM [cytotoxic, partial curve]"
same,activity (max response),[10],inactive: -10.5%
CN1CCN(C(=O)O[C@H]2c3nccnc3C(=O)N2c2ccc(Cl)cn2)CC1,Potency,[1],inactive
same,Potency,[7],inactive
same,Potency,[11],inactive
same,Potency,[8],inactive
same,Potency,[12],"inconclusive: 11.8 µM [cytotoxic, single point]"
same,Potency,[13],"inconclusive: 11.8 µM [cytotoxic, single point]"
same,Potency,[9],"inconclusive: 11.8 µM [cytotoxic, single point]"
C[C@H](N)[C@H](O)c1ccc(O)c(O)c1,Potency,[1],"inconclusive: 33.5 µM [cytotoxic, single point]"
same,Potency,[2],inactive
same,Potency,[3],inactive
same,Potency,[4],inactive
same,Potency,[5],"inconclusive: 12.6 µM [inhibitor, single point]"
same,Potency,[15],"inconclusive: 7.78 µM [inhibitor, partial curve]"
same,Potency,[6],active: 0.0517 µM
Cc1ccc(Cl)c(O)c1,Potency,[1],inactive
same,activity (max response),[10],inactive: 12.5%
CCCCCC[C@H]1C(=O)O[C@H](C)[C@H](NC(=O)c2cccc(NC=O)c2O)C(=O)O[C@@H](C)[C@@H]1OC(=O)CC(C)C,Potency,[1],"inconclusive: 0.0934 µM [cytotoxic, full curve]"
same,Potency,[16],inactive
same,Potency,[11],"inconclusive: 14.8 µM [cytotoxic, partial curve, poor fit]"
same,Potency,[14],"inconclusive: 1.48 µM [cytotoxic, full curve]"
same,Potency,[8],"inconclusive: 1.32 µM [cytotoxic, full curve]"
same,Potency,[13],"inconclusive: 2.09 µM [cytotoxic, full curve]"
same,Potency,[9],"inconclusive: 2.35 µM [cytotoxic, full curve, poor fit]"
same,Potency,[10],"inconclusive: 0.794 µM [cytotoxic, full curve]"
same,Potency,[3],"inconclusive: 2 µM [cytotoxic, full curve]"
CC(C)[C@H]1C(=O)N[C@H](CO)Cc2c[nH]c3cccc(c23)N1C,Potency,[1],"inconclusive: 0.723 µM [cytotoxic, full curve]"
same,Potency,[7],"inconclusive: 2.35 µM [cytotoxic, full curve]"
same,Potency,[11],"inconclusive: 1.66 µM [cytotoxic, full curve]"
same,Potency,[13],"inconclusive: 1.66 µM [cytotoxic, full curve]"
same,Potency,[9],inactive
same,Potency,[3],inactive
O=S(=O)(CC1CS1)c1ccc(Oc2ccccc2)cc1 (stereo not given),Potency,[1],"inconclusive: 9.34 µM [cytotoxic, full curve]"
same,Potency,[16],"inconclusive: 29.6 µM [cytotoxic, single point]"
same,Potency,[7],"inconclusive: 52.6 µM [cytotoxic, single point]"
same,Potency,[11],"inconclusive: 18.7 µM [cytotoxic, partial curve]"
same,Potency,[14],"inconclusive: 33.2 µM [cytotoxic, single point]"
same,Potency,[12],"inconclusive: 33.2 µM [cytotoxic, single point]"
same,Potency,[13],active: 20.9 µM
same,Potency,[9],"inconclusive: 29.6 µM [cytotoxic, single point]"
same,Potency,[3],"inconclusive: 35.5 µM [cytotoxic, single point]"
